According to ChEMBL document CHEMBL4888484, “Replenishing the malaria drug discovery pipeline: Screening and hit evaluation of the MMV Hit Generation Library 1 (HGL1) against asexual blood stage Plasmodium falciparum ,using a nano luciferase reporter read-out” (2022):
In all, about 150,000 compounds went through this assay and about 540 (0.36%) showed an effect of 50% or more. The list shows a part of the results.

System: Plasmodium falciparum
Test: Primary screen in NF54 nanoGlo assay, in single point, at 2uM, 72h; a lower Z score goes with more inhibition
Assay type: functional, Erythrocyte
Settings: timepoint 72 hour

SMILES | % Inhibition [%] | Z score
CO[C@H]1COC[C@@H]1NC(=O)c1ccn(C)c1C | 1 | -0.11
O=C(Cn1cnc2ccccc21)NCc1cncc(-c2ccco2)c1 | -8 | 1.53
COc1ccc(-c2noc([C@@H]3Cc4[nH]cnc4CN3Cc3ccc(F)cc3)n2)cc1 | 32 | -3.65
O=c1c(-c2nc(-c3ccc(Br)cc3)no2)c[nH]c2ccccc12 | -10 | 1.63
O=C(NCc1cccs1)c1cc(N2CCCC2)ncn1 | -2 | 0.26
O=C(Nc1ccc2c(c1)OCO2)N1CCC(Oc2nc3ccccc3s2)CC1 | -15 | 2.13
CC[C@H](C)S(=O)(=O)NC(=O)Cc1c(C)noc1C | 32 | -0.9
CC(C)(C)[C@H](NCc1nnsc1Cl)C(N)=O | -10 | 1.41
O=C(Nc1cc(Cl)cc(Cl)c1)N1CCCCCC1 | 2 | -0.43
C[C@@H](C(=O)N1CC(C)(C)Oc2cc(Br)ccc21)n1cncn1 | -4 | 0.7
CC(C)[C@H](Nc1ccc(C(F)(F)F)cc1Cl)C(=O)NCc1nnc2ccccn12 | -13 | 1.4
CC(C(=O)NC1C=CCCC1)C(C)C(=O)NC1C=CCCC1 (stereo unspecified) | -38 | 4.44
Cc1cccc(-n2nc(CC(N)=O)nc2[C@@]2(C)CCN(C)C2)c1C | -13 | 1.8
CCc1nnc(-c2cc(NC(=O)Cc3ccc(C)cc3)c(C)s2)o1 | -11 | 1.05
CC[C@H]1CCc2c(c(-c3cccc(O)c3)nc3c(-c4ccc(Cl)cc4)cnn23)C1 | 4 | -0.53
Cc1cc(CNC(=O)CC(C)(C)C)c(C)o1 | 7 | -0.95
COc1ccc(OC)c2c1cc1n2C[C@@](C)(C(=O)NC2CCCC2)N(CCc2ccccc2)C1=O | 0 | 0.05
COc1ccc(C(=O)N2C[C@H](c3nnc(C(C)C)o3)C3(CCN(C)CC3)C2)cc1F | 6 | -0.99
O=S(=O)(NC[C@H]1CCCCN1)c1cccc(F)c1F | -11 | 1.53
Cc1cc(C)c[n+](CC(=O)c2ccc(-c3ccccc3)cc2)c1 | -8 | 0.93
Cc1ccc(Nc2nc(N)nc(Cn3cnc(C)c3C)n2)cc1 | -3 | 0.51
CCCN(CCC)c1ncc(C(=O)O)cc1NS(=O)(=O)c1ccc(F)c(F)c1 | -12 | 1.14

SMILES | % Inhibition [%] | Z score
CCc1nc(C)c(-c2nc(CCc3ccccc3)no2)s1 | -4 | 0.52
CCN(CC(=O)Nc1ccc2c(c1)OCCCO2)Cc1nc2cc(Cl)ccc2c(=O)[nH]1 | 9 | -1.1
CC(C)C1OCCCC1CNc1ccc(C#N)nc1 (stereo unspecified) | -7 | 0.92
Cc1ccc(-c2nnc(-c3ccc(F)cc3)nc2NC(C)C)cc1 | -19 | 2.21
O=C(NCc1ccco1)NCc1ccco1 | -4 | 0.8
O=C(CCc1cccc(Cl)c1)N1CC[C@H](c2ccc3c(c2)OCO3)C1 | 4 | -0.57
Fc1ccc(-c2ccc(CNC3CC3)o2)cc1Cl | -11 | 0.94
O=C(c1cc(F)ccc1Cl)N1CCC[C@@]2(CCNC2)C1 | -15 | 1.36
CN(C)C(=O)CN1CCc2cccc(NC(=O)OC(C)(C)C)c21 | 36 | -5.25
CCn1nccc1-c1cccc(-c2noc(-c3cc(Cl)ccc3F)n2)c1 | -8 | 0.95
O=C(CNCCc1ccc(Cl)cc1Cl)NCc1ccco1 | -13 | 1.12
CC(C)Oc1ccc(-c2nc(N(C)C3CCCCC3)c3ccccc3n2)cc1 | 2 | -0.18
O=C(c1ccccc1-n1ccnn1)N1CCC[C@H](OCC(F)(F)F)C1 | -15 | 2.94
CCCCS(=O)(=O)N[C@H]1CCN(c2nc(C)cc(=O)[nH]2)C1 | -26 | 3.01
CCO[C@H]1CCN(C(=O)c2coc3c2C(=O)NCC(C)(C)C3)C1 | 0 | -0.02
Cn1c(CCNC(=O)[C@@H]2COCCN2)nc2ccc(F)cc21 | 1 | -0.19
CCc1c(C)sc(NC(=O)Cc2c(C)nn(C)c2C)c1C#N | -2 | 0.37
CC1=C(c2ccc(C(C)C)cc2)S(=O)(=O)N=C1N1CCN(C2CCCCC2)CC1 | -15 | 2.16
Cc1cccnc1CCNC(=O)N1CC[C@H](N2CCCCC2)C1 | -15 | 1.43
O=C1CCCN1C[C@@H](O)CN1CCCc2n[nH]cc21 | -3 | 0.36
COCCC(=O)Nc1c(C(=O)OC)n(CCc2c[nH]c3ccccc23)c2ncc(N[C@@H](C)COC)cc12 | -10 | 1.28
